Data from paper PMC12820563, “FoxP3 forms a head-to-head dimer in vivo and stabilizes its multimerization on adjacent microsatellites”.
Some of the results follow.

These sequences were tested against T1, MBP-FoxP1dN (Mus musculus, UniProt P58462 326-579) (assay: PD-seq (MBP pull-down with sequencing); 20 mM Tris-HCl pH 7.5, 100 mM NaCl, 1.5 mM MgCl2, 0.4 uM protein, 0.1 uM dsDNA library, 30 min, room temperature, amylose pull-down; high values mean tight binding). Conditions: protein: recombinant; tags: His6-MBP; chain copies: 2; dsDNA, one strand shown.
T1 sequence: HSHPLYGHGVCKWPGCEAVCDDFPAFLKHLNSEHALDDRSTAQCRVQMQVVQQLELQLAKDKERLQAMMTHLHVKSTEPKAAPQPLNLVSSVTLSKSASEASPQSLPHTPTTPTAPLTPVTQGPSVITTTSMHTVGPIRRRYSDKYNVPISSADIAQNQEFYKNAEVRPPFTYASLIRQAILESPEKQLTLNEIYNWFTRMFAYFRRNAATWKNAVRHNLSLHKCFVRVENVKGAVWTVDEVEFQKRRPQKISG
How it was run: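 Protein and DNA were mixed at 0.4 µM and 0.1 µM and held for 30 min at room temperature in Tris pH 7.5 buffer with NaCl and MgCl2; the protein was a His6-MBP-tagged, N-terminally truncated mouse FoxP3 or FoxP1 fragment from E. coli, and the DNA a Klenow-filled double-stranded degenerate library. Amylose resin captured the complexes, which were washed three times. Binding is read as reads-per-million enrichment of pull-down versus input after Illumina sequencing, with replicates pooled.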

Sequence | binding signal
GATGATTGTTCTCCCAGCTGATGAATTTTCGGAATCGAGTAAACAAATTTTCCTAATCTTTCTGTTCAAGCGCCATCTAC | 0.951 RPM ratio (pull-down/input)
GATGATTGTTCTCCCAGCTGATGAATTGATACATTCGAGTAAACAAATTTTCCTAATCTTTCTGTTCAAGCGCCATCTAC | 1.53 RPM ratio (pull-down/input)
GATGATTGTTCTCCCAGCTGATGAATTTAAACCTTCGAGTAAACAAATTTTCCTAATCTTTCTGTTCAAGCGCCATCTAC | 0.849 RPM ratio (pull-down/input)
GATGATTGTTCTCCCAGCTGATGAATTCTGCAAATCGAGTAAACAAATTTTCCTAATCTTTCTGTTCAAGCGCCATCTAC | 1.06 RPM ratio (pull-down/input)
GATGATTGTTCTCCCAGCTGATGAATTGCGTGCGTCGAGTAAACAAATTTTCCTAATCTTTCTGTTCAAGCGCCATCTAC | 1.18 RPM ratio (pull-down/input)
GATGATTGTTCTCCCAGCTGATGAATTGCCTGTCTCGAGTAAACAAATTTTCCTAATCTTTCTGTTCAAGCGCCATCTAC | 0.888 RPM ratio (pull-down/input)
GATGATTGTTCTCCCAGCTGATGAATTCGTGTGATCGAGTAAACAAATTTTCCTAATCTTTCTGTTCAAGCGCCATCTAC | 0.95 RPM ratio (pull-down/input)
GATGATTGTTCTCCCAGCTGATGAATTCAGTACTTCGAGTAAACAAATTTTCCTAATCTTTCTGTTCAAGCGCCATCTAC | 0.913 RPM ratio (pull-down/input)
GATGATTGTTCTCCCAGCTGATGAATTAACGATCTCGAGTAAACAAATTTTCCTAATCTTTCTGTTCAAGCGCCATCTAC | 0.918 RPM ratio (pull-down/input)
GATGATTGTTCTCCCAGCTGATGAATTTATACCTTCGAGTAAACAAATTTTCCTAATCTTTCTGTTCAAGCGCCATCTAC | 1.04 RPM ratio (pull-down/input)
GATGATTGTTCTCCCAGCTGATGAATTATCTTTTTCGAGTAAACAAATTTTCCTAATCTTTCTGTTCAAGCGCCATCTAC | 1.02 RPM ratio (pull-down/input)
GATGATTGTTCTCCCAGCTGATGAATTGTACTAATCGAGTAAACAAATTTTCCTAATCTTTCTGTTCAAGCGCCATCTAC | 1.15 RPM ratio (pull-down/input)
GATGATTGTTCTCCCAGCTGATGAATTAAACACTTCGAGTAAACAAATTTTCCTAATCTTTCTGTTCAAGCGCCATCTAC | 1.21 RPM ratio (pull-down/input)
GATGATTGTTCTCCCAGCTGATGAATTGAGTCCGTCGAGTAAACAAATTTTCCTAATCTTTCTGTTCAAGCGCCATCTAC | 0.855 RPM ratio (pull-down/input)
GATGATTGTTCTCCCAGCTGATGAATTTTTGTGATCGAGTAAACAAATTTTCCTAATCTTTCTGTTCAAGCGCCATCTAC | 1.19 RPM ratio (pull-down/input)
GATGATTGTTCTCCCAGCTGATGAATTACTTAGCTCGAGTAAACAAATTTTCCTAATCTTTCTGTTCAAGCGCCATCTAC | 0.999 RPM ratio (pull-down/input)
GATGATTGTTCTCCCAGCTGATGAATTGGCAGCGTCGAGTAAACAAATTTTCCTAATCTTTCTGTTCAAGCGCCATCTAC | 0.941 RPM ratio (pull-down/input)
GATGATTGTTCTCCCAGCTGATGAATTGGTGCATTCGAGTAAACAAATTTTCCTAATCTTTCTGTTCAAGCGCCATCTAC | 1.35 RPM ratio (pull-down/input)
GATGATTGTTCTCCCAGCTGATGAATTTTATTTGTCGAGTAAACAAATTTTCCTAATCTTTCTGTTCAAGCGCCATCTAC | 2.45 RPM ratio (pull-down/input)
GATGATTGTTCTCCCAGCTGATGAATTGGGCTCTTCGAGTAAACAAATTTTCCTAATCTTTCTGTTCAAGCGCCATCTAC | 0.836 RPM ratio (pull-down/input)

Sequence | binding signal
GATGATTGTTCTCCCAGCTGATGAATTTATAGTATCGAGTAAACAAATTTTCCTAATCTTTCTGTTCAAGCGCCATCTAC | 1.24 RPM ratio (pull-down/input)
GATGATTGTTCTCCCAGCTGATGAATTGAGTTAGTCGAGTAAACAAATTTTCCTAATCTTTCTGTTCAAGCGCCATCTAC | 0.899 RPM ratio (pull-down/input)
GATGATTGTTCTCCCAGCTGATGAATTCTAATACTCGAGTAAACAAATTTTCCTAATCTTTCTGTTCAAGCGCCATCTAC | 0.888 RPM ratio (pull-down/input)
GATGATTGTTCTCCCAGCTGATGAATTTTTTGAGTCGAGTAAACAAATTTTCCTAATCTTTCTGTTCAAGCGCCATCTAC | 0.866 RPM ratio (pull-down/input)
GATGATTGTTCTCCCAGCTGATGAATTCCCTCGCTCGAGTAAACAAATTTTCCTAATCTTTCTGTTCAAGCGCCATCTAC | 0.751 RPM ratio (pull-down/input)
GATGATTGTTCTCCCAGCTGATGAATTTTACAAGTCGAGTAAACAAATTTTCCTAATCTTTCTGTTCAAGCGCCATCTAC | 0.831 RPM ratio (pull-down/input)
GATGATTGTTCTCCCAGCTGATGAATTGTAATCTTCGAGTAAACAAATTTTCCTAATCTTTCTGTTCAAGCGCCATCTAC | 1.06 RPM ratio (pull-down/input)
GATGATTGTTCTCCCAGCTGATGAATTGAGCTATTCGAGTAAACAAATTTTCCTAATCTTTCTGTTCAAGCGCCATCTAC | 0.843 RPM ratio (pull-down/input)
GATGATTGTTCTCCCAGCTGATGAATTAATGATCTCGAGTAAACAAATTTTCCTAATCTTTCTGTTCAAGCGCCATCTAC | 0.89 RPM ratio (pull-down/input)
GATGATTGTTCTCCCAGCTGATGAATTCATGCCCTCGAGTAAACAAATTTTCCTAATCTTTCTGTTCAAGCGCCATCTAC | 0.832 RPM ratio (pull-down/input)
GATGATTGTTCTCCCAGCTGATGAATTTGGACGATCGAGTAAACAAATTTTCCTAATCTTTCTGTTCAAGCGCCATCTAC | 0.904 RPM ratio (pull-down/input)
GATGATTGTTCTCCCAGCTGATGAATTGCGCTAATCGAGTAAACAAATTTTCCTAATCTTTCTGTTCAAGCGCCATCTAC | 1.18 RPM ratio (pull-down/input)
GATGATTGTTCTCCCAGCTGATGAATTGACGGCTTCGAGTAAACAAATTTTCCTAATCTTTCTGTTCAAGCGCCATCTAC | 1.02 RPM ratio (pull-down/input)
GATGATTGTTCTCCCAGCTGATGAATTAGTCTCTTCGAGTAAACAAATTTTCCTAATCTTTCTGTTCAAGCGCCATCTAC | 0.911 RPM ratio (pull-down/input)
GATGATTGTTCTCCCAGCTGATGAATTCGCAACTTCGAGTAAACAAATTTTCCTAATCTTTCTGTTCAAGCGCCATCTAC | 1.01 RPM ratio (pull-down/input)
GATGATTGTTCTCCCAGCTGATGAATTATTAATTTCGAGTAAACAAATTTTCCTAATCTTTCTGTTCAAGCGCCATCTAC | 1.34 RPM ratio (pull-down/input)
GATGATTGTTCTCCCAGCTGATGAATTCATTGCCTCGAGTAAACAAATTTTCCTAATCTTTCTGTTCAAGCGCCATCTAC | 0.872 RPM ratio (pull-down/input)
GATGATTGTTCTCCCAGCTGATGAATTTACTATATCGAGTAAACAAATTTTCCTAATCTTTCTGTTCAAGCGCCATCTAC | 1.45 RPM ratio (pull-down/input)
GATGATTGTTCTCCCAGCTGATGAATTCGGTCTTTCGAGTAAACAAATTTTCCTAATCTTTCTGTTCAAGCGCCATCTAC | 0.801 RPM ratio (pull-down/input)
GATGATTGTTCTCCCAGCTGATGAATTTCTCCTGTCGAGTAAACAAATTTTCCTAATCTTTCTGTTCAAGCGCCATCTAC | 0.819 RPM ratio (pull-down/input)
